From the supplement of paper PMC9588766
Where a name gives a salt, the structure may show the parent alone. ± gives the standard deviation of the averaged measurements. Whole data set: some 2,000 compounds, median “cell viability relative to DMSO control (compound alone)” near 0.98, cut for the lowest 2% near 0.23. This is one part of the list.

System: PDC-DUC18828
Experiment: cell viability relative to DMSO control (compound alone) (fraction); PDC-DUC18828 is a patient-derived cholangiocarcinoma cell line; higher = less growth inhibition
Settings: 1 µM; 72 h
Experimental: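 Selleck Bioactive library screen in the patient-derived FGFR2-G3BP2 fusion-positive ICC cell line PDC-DUC18828 (500 cells/well). Each compound was tested at 1 uM alone, in triplicate, for 72 h. Viability was read by CellTiter-Glo and normalised to plate DMSO controls.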

With `CO[C@H]1C[C@@H]2CC[C@@H](C)[C@@](O)(O2)C(=O)C(=O)N2CCCC[C@H]2C(=O)O[C@H]([C@H](C)C[C@@H]2CC[C@@H](OC(=O)C(C)(CO)CO)[C@H](OC)C2)CC(=O)[C@H](C)/C=C(\C)[C@@H](O)[C@@H](OC)C(=O)[C@H](C)C[C@H](C)/C=C/C=C/C=C/1C` as the compound, how does the cell viability read?
Its cell viability is 0.545 ± 0.057.

Which cell viability does the source give for `CCC[C@@H]1C[C@@H](C(=O)N[C@@H]([C@H]2O[C@H](SC)[C@H](O)[C@@H](O)[C@H]2O)[C@@H](C)O)N(C)C1` [Lincomycin HCl] here?
Its cell viability is 0.98 ± 0.028.

How did the cell viability turn out when `N#Cc1c(Oc2ccc(F)c(NC(=O)Cc3cccc(C(F)(F)F)c3)c2)ccc2nc(NC(=O)C3CC3)sc12` was run?
The cell viability was 0.918 ± 0.087.

`Cc1ccc(CNc2ncnc3ccc(-c4ccc(CO)o4)cc23)o1` was tested. Which cell viability did it give?
Its cell viability is 0.917 ± 0.06.

For `CN1C(C(=O)Nc2ccccn2)=C(O)c2sc(Cl)cc2S1(=O)=O` [Lornoxicam], which cell viability is on record?
The cell viability was 1.1 ± 0.0054.

With `CC12CC3CC(C)(C1)CC(N)(C3)C2` [Memantine HCl] as the compound, how does the cell viability read?
Its cell viability is 1.01 ± 0.018.

Which cell viability does the source give for `O=C(O)c1ccc(C=C2SC(=S)N(c3cccc(C(F)(F)F)c3)C2=O)cc1` here?
The cell viability was 0.981 ± 0.031.

How did the cell viability turn out when `COc1ccc(-c2cc(=O)c3c(OC)c(OC)c(OC)c(OC)c3o2)cc1` [Tangeretin] was run?
The cell viability was 0.963 ± 0.032.

How did the cell viability turn out when `Cc1cccc(-c2nn3c(c2-c2ccnc4ccc(C(N)=O)cc24)CCC3)n1` was run?
The cell viability was 1.1 ± 0.013.

`CC(C)c1nc(CN(C)C(=O)N[C@@H](CCN2CCOCC2)C(=O)N[C@H](CC[C@H](Cc2ccccc2)NC(=O)OCc2cncs2)Cc2ccccc2)cs1` [Cobicistat (GS-9350)] was tested. Which cell viability did it give?
Its cell viability is 1.01 ± 0.07.

With `Cc1cc(C)nc(NS(=O)(=O)c2ccc(NC(=S)NC(=O)COc3ccc(Br)cc3Cl)cc2)n1` as the compound, how does the cell viability read?
Its cell viability is 1.01 ± 0.08.

How did the cell viability turn out when `O=C(Nc1cccnc1)N1CCC(Cc2cccc(Oc3ccc(C(F)(F)F)cn3)c2)CC1` was run?
The cell viability was 1.01 ± 0.047.

`CCCCc1oc2ccccc2c1C(=O)c1cc(I)c(OCCN(CC)CC)c(I)c1` [Amiodarone HCl] was tested. Which cell viability did it give?
Its cell viability is 0.975 ± 0.045.

`O=C(O)c1cccnc1` [Nicotinic Acid] was tested. Which cell viability did it give?
Its cell viability is 1.031 ± 0.0061.

`C=CCNC1=C2C[C@@H](C)C[C@H](OC)[C@H](O)[C@@H](C)/C=C(\C)[C@H](OC(N)=O)[C@@H](OC)/C=C\C=C(/C)C(=O)NC(=CC1=O)C2=O` [17-AAG (Tanespimycin)] was tested. Which cell viability did it give?
Its cell viability is 0.315 ± 0.02.

How did the cell viability turn out when `Cc1cccc(N(C)C(=S)Oc2ccc3ccccc3c2)c1` [Tolnaftate] was run?
The cell viability was 1.06 ± 0.032.

How did the cell viability turn out when `O=c1[nH]c(=O)n([C@H]2C[C@H](O)[C@@H](CO)O2)cc1I` [Idoxuridine] was run?
Its cell viability is 0.994 ± 0.032.

With `CN1CCN(c2ccc3nc(-c4c(N)c5c(F)cccc5[nH]c4=O)[nH]c3c2)CC1` [Dovitinib (TKI-258, CHIR-258)] as the compound, how does the cell viability read?
The cell viability was 0.942 ± 0.046.

How did the cell viability turn out when `CN1CCN(c2ccc3nc(-c4c(N)c5c(F)cccc5[nH]c4=O)[nH]c3c2)CC1` [Dovitinib (TKI258) Lactate] was run?
The cell viability was 0.743 ± 0.046.

For `COc1ccc(-c2ccc3cc(C(=O)O)ccc3c2)cc1C12CC3CC(CC(C3)C1)C2` [Adapalene], which cell viability is on record?
Its cell viability is 1.01 ± 0.012.

With `COc1cc2c(NC3CCN(CC4CCCCC4)CC3)nc(N3CCCN(C(C)C)CC3)nc2cc1OCCCN1CCCCC1` as the compound, how does the cell viability read?
Its cell viability is 0.996 ± 0.034.

With `NNC(=O)c1ccncc1` [Isoniazid] as the compound, how does the cell viability read?
Its cell viability is 1.02 ± 0.073.

How did the cell viability turn out when `CC1(C)C=C(CN2C/C(=C\c3ccc(F)cc3)C(=O)/C(=C/c3ccc(F)cc3)C2)C(C)(C)N1O` was run?
Its cell viability is 0.952 ± 0.061.

For `C[C@H]1C[C@H]2[C@@H]3CCC4=CC(=O)C=C[C@]4(C)[C@H]3C(=O)C[C@]2(C)[C@@]1(O)C(=O)CO` [Meprednisone], which cell viability is on record?
The cell viability was 1.04 ± 0.011.

For `Cc1ccc(S(=O)(=O)OCC(=O)Nc2ccc(C(=O)O)c(O)c2)cc1`, which cell viability is on record?
The cell viability was 0.988 ± 0.018.

How did the cell viability turn out when `O=C(O)CCCN1CCC(O[C@@H](c2ccc(Cl)cc2)c2ccccn2)CC1` [Bepotastine Besilate] was run?
Its cell viability is 0.972 ± 0.023.

`Cn1c(=O)c(F)c(Nc2ccc(I)cc2F)c2c(=O)n(C[C@@H](O)CO)cnc21` was tested. Which cell viability did it give?
The cell viability was 0.663 ± 0.098.

With `COc1ccc(/C=C/C(=O)C2(C(=O)/C=C/c3ccc(OC)c(OC)c3)CCCCC2)cc1OC` as the compound, how does the cell viability read?
The cell viability was 0.824 ± 0.12.

For `COc1ccc(-c2cc3c(C)nc(N)nc3n([C@H]3CC[C@H](OCCO)CC3)c2=O)cn1`, which cell viability is on record?
Its cell viability is 0.222 ± 0.0044.

Which cell viability does the source give for `CCC(C)(C)c1ccc(CC(C)CN2C[C@@H](C)O[C@@H](C)C2)cc1` (stereo partly drawn) [Amorolfine HCl] here?
The cell viability was 0.999 ± 0.026.

How did the cell viability turn out when `CC(C)N(CCC(=O)c1ccc2ccccc2c1)Cc1ccccc1` was run?
The cell viability was 1.05 ± 0.02.

For `CC(C)(C)C#Cc1cc(N(C(=O)[C@H]2CC[C@H](C)CC2)[C@H]2CC[C@H](O)CC2)c(C(=O)O)s1` [VX-222 (VCH-222, Lomibuvir)], which cell viability is on record?
The cell viability was 1 ± 0.021.

With `CCOC(=O)c1ccc(C#Cc2ccc3c(c2)C(C)(C)CCS3)nc1` [Tazarotene] as the compound, how does the cell viability read?
The cell viability was 1.08 ± 0.051.

With `CCCNS(=O)(=O)Nc1ncnc(OCCOc2ncc(Br)cn2)c1-c1ccc(Br)cc1` [Macitentan] as the compound, how does the cell viability read?
Its cell viability is 0.993 ± 0.038.

With `CCOc1nc2cccc(C(=O)OC(C)OC(=O)OC3CCCCC3)c2n1Cc1ccc(-c2ccccc2-c2nn[nH]n2)cc1` (stereo not drawn) [Candesartan Cilexetil] as the compound, how does the cell viability read?
The cell viability was 1.04 ± 0.047.

`Nc1ccc(S(N)(=O)=O)cc1` [Sulfanilamide] was tested. Which cell viability did it give?
The cell viability was 0.973 ± 0.038.

`CCN1CCC[C@H]1CNC(=O)c1cc(S(N)(=O)=O)ccc1OC` [Levosulpiride] was tested. Which cell viability did it give?
Its cell viability is 1.02 ± 0.049.

With `CC(C)(Oc1ccc(C2CC2(Cl)Cl)cc1)C(=O)O` (stereo not drawn) [Ciprofibrate] as the compound, how does the cell viability read?
Its cell viability is 0.932 ± 0.082.

How did the cell viability turn out when `N#CC(=C(/N)Sc1ccccc1N)/C(C#N)=C(\N)Sc1ccccc1N` was run?
Its cell viability is 0.937 ± 0.07.

How did the cell viability turn out when `COc1ccc(CNCc2cccc3ccccc23)cc1` was run?
The cell viability was 1.03 ± 0.077.

With `NC(=O)[C@@H](CCC(F)(F)F)N(Cc1ccc(-c2ncon2)cc1F)S(=O)(=O)c1ccc(Cl)cc1` as the compound, how does the cell viability read?
The cell viability was 0.934 ± 0.071.

For `Cc1[nH]c(/C=C2\C(=O)Nc3ccc(S(=O)(=O)Cc4c(Cl)cccc4Cl)cc32)c(C)c1C(=O)N1CCC[C@@H]1CN1CCCC1`, which cell viability is on record?
Its cell viability is 1.03 ± 0.08.

`C=CCN1CCCC1CNC(=O)c1cc2nn[nH]c2cc1OC` (stereo not drawn) [Alizapride HCl] was tested. Which cell viability did it give?
Its cell viability is 0.96 ± 0.042.

`Nc1nc(Nc2ccc(S(N)(=O)=O)cc2)nn1C(=O)c1c(F)cccc1F` was tested. Which cell viability did it give?
The cell viability was 0.839 ± 0.056.

For `CC(C)c1onc(-c2c(Cl)cccc2Cl)c1COc1ccc(/C=C/c2cccc(C(=O)O)c2)c(Cl)c1`, which cell viability is on record?
The cell viability was 1.01 ± 0.055.

Which cell viability does the source give for `NC(=O)CCCSc1nc(N)nc(-c2c(Cl)cc3c4c(cccc24)COC3)n1` here?
Its cell viability is 0.374 ± 0.024.

With `Cc1c(Cn2c(C)nc3c(C(=O)O)cc(N4CCOCC4)cc32)cccc1C(F)(F)F` as the compound, how does the cell viability read?
Its cell viability is 0.932 ± 0.059.

For `CCCCCCCCCCCCCCCC[N+](C)(C)C` [Cetrimonium Bromide (CTAB)], which cell viability is on record?
The cell viability was 0.921 ± 0.018.
